Experimental data taken from patent US20250270341A1 (Alector, published 2025).

T1: human CD98hc endogenously expressed on HCMEC/D3 cells (human)
T1 construct: human brain endothelial cell line
T1 chain: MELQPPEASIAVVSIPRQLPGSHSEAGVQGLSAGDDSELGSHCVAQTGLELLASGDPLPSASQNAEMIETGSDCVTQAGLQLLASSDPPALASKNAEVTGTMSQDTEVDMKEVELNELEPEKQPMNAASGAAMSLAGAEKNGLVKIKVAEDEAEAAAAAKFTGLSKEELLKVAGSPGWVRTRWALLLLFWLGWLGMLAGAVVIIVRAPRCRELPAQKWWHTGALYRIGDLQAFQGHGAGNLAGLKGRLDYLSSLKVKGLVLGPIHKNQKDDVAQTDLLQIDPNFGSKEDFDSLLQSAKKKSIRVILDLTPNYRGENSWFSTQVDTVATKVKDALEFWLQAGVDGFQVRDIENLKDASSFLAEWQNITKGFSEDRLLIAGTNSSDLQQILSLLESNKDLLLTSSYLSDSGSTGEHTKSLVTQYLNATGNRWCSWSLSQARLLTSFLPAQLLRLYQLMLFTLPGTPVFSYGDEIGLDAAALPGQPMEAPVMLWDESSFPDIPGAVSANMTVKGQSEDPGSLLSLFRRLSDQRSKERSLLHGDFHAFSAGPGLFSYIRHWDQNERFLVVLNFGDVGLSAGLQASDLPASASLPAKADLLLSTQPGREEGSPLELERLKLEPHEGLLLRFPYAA

T2: Full length human CD98hc on CHO cells (human)
T2 construct: CHO cells stably overexpressing it; also called CHO-human CD98hc; CHO-huCD98hc
T2 chain: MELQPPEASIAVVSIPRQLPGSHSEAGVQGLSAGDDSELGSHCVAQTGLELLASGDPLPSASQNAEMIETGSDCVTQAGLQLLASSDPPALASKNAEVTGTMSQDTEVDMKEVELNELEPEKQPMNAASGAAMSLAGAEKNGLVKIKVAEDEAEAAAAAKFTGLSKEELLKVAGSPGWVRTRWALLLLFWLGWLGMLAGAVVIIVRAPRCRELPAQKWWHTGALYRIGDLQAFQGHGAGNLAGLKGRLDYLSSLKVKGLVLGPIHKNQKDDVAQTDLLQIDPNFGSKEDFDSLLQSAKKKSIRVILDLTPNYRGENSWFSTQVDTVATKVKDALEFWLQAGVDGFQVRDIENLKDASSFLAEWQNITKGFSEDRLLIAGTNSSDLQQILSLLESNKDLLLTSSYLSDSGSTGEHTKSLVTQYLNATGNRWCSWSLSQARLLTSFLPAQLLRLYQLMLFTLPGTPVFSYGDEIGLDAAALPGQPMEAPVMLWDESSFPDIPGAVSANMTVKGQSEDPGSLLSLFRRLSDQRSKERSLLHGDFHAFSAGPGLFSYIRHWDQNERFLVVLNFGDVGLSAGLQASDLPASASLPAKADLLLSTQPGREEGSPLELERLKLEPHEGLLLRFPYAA


Legend:
[1] = target: T1, human CD98hc endogenously expressed on …; experiment: FACS
[2] = target: T2, Full length human CD98hc on CHO cells; experiment: FACS

Row | MFI ratio HCMEC/2nd ab only [1] | MFI ratio CHO huCD98/CHO parental [2] | Binder
1 | 526 | 23 | CD98hc.05.193 (2+1 bispecific antibody) (bispecific antibody) heavy 1: EVRLLESGGGLVQPGGSLRLSCAASGFTFSNYAMGWVRQAPGKGLEWVSAISGSGGSTYYADSVKGRFTTSRDDSKNALYLQMNSLRAEDTAVYYCARGGPGWYAADVWGQGTTVTVSSASTKGPSVFPLAPSSKSTSGGTAALGCLVKDYFPEPVTVSWNSGALTSGVHTFPAVLQSSGLYSLSSVVTVPSSSLGTQTYICNVNHKPSNTKVDKKV[here human IgG1 Fc with changes without letters]GGGGSGGGGSGGGGSEVQLVESGGGLVQPGGSLKVSCTTSGFTFSDFDMSWIRQTPEKRLEWVAYISSGGGSTYFPDTVKGRFTISRDNAKSTLYLQMSSLKSEDTAMYYCARHVGVRPWFDYWGQGTLVTVSSGGSEGKSSGSGSESKSTGGSDIVMSQSPSSLAVSVGEKVTMTCKSSQSLLYSSNQKNYLAWYQQKPGQSPKLLIYWASTRESGVPDRFTGSGSGTDFTLTISSVKAEDLALYYCQQYHYYPPTFGAGTKLEIK heavy 2: EVRLLESGGGLVQPGGSLRLSCAASGFTFSNYAMGWVRQAPGKGLEWVSAISGSGGSTYYADSVKGRFTTSRDDSKNALYLQMNSLRAEDTAVYYCARGGPGWYAADVWGQGTTVTVSS[here human IgG1 constant region with changes without letters] light: DIQMTQSPSSLSASVGDRVTITCRASQSISSYLNWYQQKPGKAPKLLIYAASSLQSGVPSRFSGSGSGTDFTLTISSLQPEDFATYYCQQADLPAFAFGGGTKVEIKRTVAAPSVFIFPPSDEQLKSGTASVVCLLNNFYPREAKVQWKVDNALQSGNSQESVTEQDSKDSTYSLSSTLTLSKADYEKHKVYACEVTHQGLSSPVTKSFNRGEC
2 | 490 | 24 | CD98hc.05.226 (2+1 bispecific antibody) (bispecific antibody) heavy 1: EVRLLESGGGLVQPGGSLRLSCAASGFTFSNYAMGWVRQAPGKGLEWVSAISGSGGSTYYADSVKGRFTTSRDDSKNALYLQMNSLRAEDTAVYYCARGGPGWYAADVWGQGTTVTVSSASTKGPSVFPLAPSSKSTSGGTAALGCLVKDYFPEPVTVSWNSGALTSGVHTFPAVLQSSGLYSLSSVVTVPSSSLGTQTYICNVNHKPSNTKVDKKV[here human IgG1 Fc with changes without letters]GGGGSGGGGSGGGGSEVQLVESGGGLGKPGGSLKLSCAASGFAFSSYDMSWVRQTPEKRLDWVAYISSGGGGTYYPDTVKGRFTISRDNAKNTLYLQMSSLKSEDTAIYYCARHVGVRPWFGYWGQGTLVTVSSGGSEGKSSGSGSESKSTGGSDIVMSQSPSSLAVSVGEKITMTCKSSQSLLYSGSQKNYLAWYQQKPGQSPKLLIYWASTRESGVPDRFTGSGSGTDFTLTISSVKAEDLAVYYCQQYSYYPPTFGAGTKLEIK heavy 2: EVRLLESGGGLVQPGGSLRLSCAASGFTFSNYAMGWVRQAPGKGLEWVSAISGSGGSTYYADSVKGRFTTSRDDSKNALYLQMNSLRAEDTAVYYCARGGPGWYAADVWGQGTTVTVSS[here human IgG1 constant region with changes without letters] light: DIQMTQSPSSLSASVGDRVTITCRASQSISSYLNWYQQKPGKAPKLLIYAASSLQSGVPSRFSGSGSGTDFTLTISSLQPEDFATYYCQQADLPAFAFGGGTKVEIKRTVAAPSVFIFPPSDEQLKSGTASVVCLLNNFYPREAKVQWKVDNALQSGNSQESVTEQDSKDSTYSLSSTLTLSKADYEKHKVYACEVTHQGLSSPVTKSFNRGEC
3 | 215 | 17 | CD98hc.05.207 (2+1 bispecific antibody) (bispecific antibody) heavy 1: EVRLLESGGGLVQPGGSLRLSCAASGFTFSNYAMGWVRQAPGKGLEWVSAISGSGGSTYYADSVKGRFTTSRDDSKNALYLQMNSLRAEDTAVYYCARGGPGWYAADVWGQGTTVTVSSASTKGPSVFPLAPSSKSTSGGTAALGCLVKDYFPEPVTVSWNSGALTSGVHTFPAVLQSSGLYSLSSVVTVPSSSLGTQTYICNVNHKPSNTKVDKKV[here human IgG1 Fc with changes without letters]GGGGSGGGGSGGGGSEVQLVESGGGLVKPGGSLKISCAASGFAFSSYDMSWVRQTPEKRLEWVAYISSAGGSTYFPGTVKGRFTISRDNAKNTLYLQMRSLKSEDTAMYYCARHENGHYPFFDFWGQGTTLTVSSGGSEGKSSGSGSESKSTGGSDIVMSQSPSSLAVSVGEKVTLSCKSSQSLFYSGNQKTYLAWYQQKPGQSPKLLIYWTSTRESGVPDRFTGSGSGTDFTLTISSVKAEDLAVYFCQQYYTYPPTFGAGTKLEIK heavy 2: EVRLLESGGGLVQPGGSLRLSCAASGFTFSNYAMGWVRQAPGKGLEWVSAISGSGGSTYYADSVKGRFTTSRDDSKNALYLQMNSLRAEDTAVYYCARGGPGWYAADVWGQGTTVTVSS[here human IgG1 constant region with changes without letters] light: DIQMTQSPSSLSASVGDRVTITCRASQSISSYLNWYQQKPGKAPKLLIYAASSLQSGVPSRFSGSGSGTDFTLTISSLQPEDFATYYCQQADLPAFAFGGGTKVEIKRTVAAPSVFIFPPSDEQLKSGTASVVCLLNNFYPREAKVQWKVDNALQSGNSQESVTEQDSKDSTYSLSSTLTLSKADYEKHKVYACEVTHQGLSSPVTKSFNRGEC
